Each structure is given as a SMILES string. About 800 (1.6%) of roughly 50,000 compounds showed an effect of 50% or more. The list shows a part of the results.

Results on 107 molecules are retold here after PubChem BioAssay AID1240 (Sanford-Burnham Center for Chemical Genomics, 2008).

The experiment deals with Bcl-2-like protein 10 (Homo sapiens) (UniProt Q9HD36). In words: TR3 peptide-Bcl-B binding displacers, biochemical primary FP assay, phenotype converters (AID 1240).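 Also: 0% = Bcl-B with tracer peptide and DMSO and 100% = tracer peptide lacking Bcl-B.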 Particulars: GST-Bcl-B / FITC-TR3 peptide fluorescence polarization; stronger effect = higher value; compound at 3.75 mg/L. In general terms: In fluorescence polarisation assays a small probe gives low polarisation when free and higher when bound to something large.
UniProt Q9HD36, sequence (Q9HD36 whole entry, looked up): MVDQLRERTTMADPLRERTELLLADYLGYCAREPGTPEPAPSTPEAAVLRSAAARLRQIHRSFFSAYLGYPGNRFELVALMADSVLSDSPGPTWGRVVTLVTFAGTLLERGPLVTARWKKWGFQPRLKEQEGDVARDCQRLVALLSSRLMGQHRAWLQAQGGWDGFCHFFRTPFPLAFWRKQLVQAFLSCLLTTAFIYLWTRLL
`COc1ccc(C2CC(=O)C3=C(C2)Nc2ccccc2NC3c2coc3ccccc3c2=O)cc1OC` (configuration not stated): the displacement is -2.3%.
With `O=c1[nH]n(-c2ccc(Cl)cc2)c(O)c1/C=C1\C=Nc2ccccc21` the figure was 11.4%; with `O=C(O)c1ccc(CNC(=O)C2C3CCC(C3)C2C(=O)O)cc1` (configuration not stated), -3.4%.
Then `O=C(O)C1=C2C(=O)Nc3cccc(c32)C2(C1)C(=O)Nc1ccccc12` (configuration not stated), with 21.1%; and `CN(/C=C/C=C1\CC/C(=C\C=C\N(C)c2ccccc2)C1=O)c1ccccc1`, with 5.5%.
With `Cc1ccc(-c2nc3cc(Cl)ccc3o2)cc1NC(=O)c1ccc2c(c1)OCCO2` the figure was 102%; with `Cc1cc(COc2ccccc2OCc2cc(C)no2)on1`, 1.2%; with `Cc1nnc2c3c4c(sc3nc(-c3ccccc3)n12)COC(C)(C)C4`, -3%.
In the case of `O=C1N=c2ccccc2=C1c1sc(=O)n(-c2cccc(O)c2)c1O`, the displacement was -5.8%.
With `Cc1cccc(NC(=O)CSc2nc3ccc(N4C(=O)c5ccccc5C4=O)cc3s2)c1C` the figure was 13.2%.
Then `Cc1cccc(Cl)c1OCCOCCNCCO`, with -4.8%; and `O=C1c2ccccc2C(=O)N1c1cccc2ncccc12`, with -3.4%.
With `Cc1cn(S(=O)(=O)c2ccc(Cl)cc2)c(C)n1` the figure was -6%; with `COc1ccc(-n2nnnc2C(=Cc2ccc(N(C)C)cc2)c2nnnn2-c2ccc(OC)cc2)cc1`, 157%.
In the case of `CC1=C(C(=O)OC(C)C)C(c2ccc(C(C)C)cc2)NC(=O)N1` (configuration not stated), the displacement was 7.9%.
Then `O=C1c2ccccc2C(=O)C1(Nc1ccc2c(c1)oc1ccccc12)c1ccccc1`, with -6.3%; and `COc1ccc(C2CC(=O)C3=C(C2)OC2=C(C(=O)CC(c4ccc(OC)cc4)C2)C3c2ccc(OC)c(OC)c2)cc1` (configuration not stated), with 5.4%; and `COc1ccc(Cc2c(O)nc(SCC(C)C)[nH]c2=O)cc1`, with 3.1%.
Then `COc1ccc(C2/C(=C(\O)c3ccccc3)C(=O)C(=O)N2Cc2cccnc2)cc1` (configuration not stated), with 9.4%; and `COc1cc(C(c2c(C)[nH]c3ccccc23)c2c(C)[nH]c3ccccc23)ccc1O`, with 2.2%.
With `COC(=O)C1=C(C)N(c2ccc(C)cc2)/C(=C\c2ccc(OCC(=O)Nc3ccccc3)cc2)C1=O` the figure was 11.6%.
`COc1cccc(/C=c2/sc3nc4ccccc4n3c2=O)c1`: the displacement is 92.4%.
Take `O=C(CN(c1ccccc1)S(=O)(=O)c1ccccc1[N+](=O)[O-])N1CCOCC1`: the displacement was found to be 3.2%.
With `OC(COc1ccccc1)CSc1nc2ccccc2s1` (configuration not stated) the figure was -13.3%; with `COC(=O)c1ccc(-c2ccc(/C=c3/sc4nc5ccccc5n4c3=O)o2)cc1`, 16.2%; with `O=C(COC(=O)c1ccc(C#Cc2ccccc2)cc1)c1ccc([N+](=O)[O-])cc1`, -3.8%.
Take `CCOC(=O)C1=NNC2C(=O)N(c3ccc(F)cc3)C(=O)C12` (configuration not stated): the displacement amounted to 8%.
With `Cc1ccc(C(=O)NC(C(=O)NC(C)(C)C)C23CC4CC(CC(C4)C2)C3)cc1` (configuration not stated) the figure was -13.8%.
Consider `COc1ccc(CCN(C(=O)CCC(=O)O)C2CC(=O)N(c3ccc(Cl)cc3)C2=O)cc1` (configuration not stated), for which the displacement is 4%.
Then `CCOc1ccc(C=NN2CCN(c3ccc(Cl)cc3)CC2)cc1`, with -5.4%; and `O=c1cc(C(F)(F)F)oc2ccccc12`, with -1.8%; and `O=C(Cc1csc(-c2ccccc2)n1)Nc1ccc(Br)cc1`, with -4.7%.
Turning to `O=C(CSc1nc2sc3c(c2c(=O)[nH]1)CCCC3)N1CCN(CCO)CC1`, the displacement is -1.5%.
On to `COc1ccccc1NC(=O)c1ccc(Cl)cc1Cl`, for which the displacement was found to be 8%.
With `Cc1cccc(C(=O)N2CCN(c3ccccn3)CC2)c1` the figure was -4.2%; with `O=C(Nc1cc([N+](=O)[O-])ccc1Cl)c1cc(-c2ccc(Cl)cc2)nc2ccccc12`, 13.6%; with `O=C(NC(c1ccccc1)c1ccccc1)C1CC1c1ccccc1` (configuration not stated), 10.8%.
Consider `Clc1ccc(-c2nnc(-c3sc4ccccc4c3Cl)o2)cc1`, for which the displacement is 3.2%.
With `COc1cc(/C=C2\SC(=S)N(C(Cc3ccccc3)C(=O)O)C2=O)ccc1O` (configuration not stated) the figure was 9.5%; with `O=Cc1ccc(-c2cc(C(F)(F)F)cc(C(F)(F)F)c2)o1`, -10.5%; with `O=C1NN(c2ccc(Cl)c(Cl)c2)C(=O)/C1=C/c1ccc(Cl)cc1`, 2.3%.
With `O=C1c2ccccc2S(=O)(=O)N1c1c(F)c(F)c(C(F)(F)F)c(F)c1F` the figure was 12.4%.
Then `O=[N+]([O-])c1ccc(N2CCN(S(=O)(=O)c3ccc4ccccc4c3)CC2)cc1`, with 12.7%; and `CC(=O)c1cccc(NC(=O)c2cccc(C)c2)c1`, with 3.3%; and `CCCC1=NN(C(=O)Cc2ccc(OC)c(OC)c2)C(O)(C(F)(F)F)C1` (configuration not stated), with -13.9%.
For the molecule `CCOc1ccccc1NS(=O)(=O)c1cc(Cl)ccc1Cl`, the displacement was -14.2%.
With `CCC(=O)Nc1cccc(NC(=O)c2ccc(C(C)(C)C)cc2)c1` the figure was 0.9%; with `O=C(N/N=C/c1ccc(OCc2ccccc2)cc1)c1ccc[n+](Cc2ccccc2)c1`, 11.1%.
With `COc1ccc(NC(=O)C(=O)NCc2ccco2)cc1Cl` the figure was 9.2%.
`O=c1[nH]c(=O)n(Cc2ccccc2)cc1Cl`: the displacement was 0.6%.
Consider `CC(C)CN1C(=O)/C(=C/c2cccc(Oc3ccccc3)c2)SC1=S`, for which the displacement came to 12.4%.
Consider `Cc1ccc2cccc(OC(=O)c3oc4ccccc4c3C)c2n1`, for which the displacement is 17.6%.
Then `COc1ccc(NC(=O)N2CCOCC2)c(OC)c1`, with 1%; and `NC(=O)NC(c1ccccc1)c1ccccc1Cl` (configuration not stated), with 5.4%.
With `Cc1csc(NC(=O)c2cnccn2)n1` the figure was -0.6%.
With `Cc1ccc(C(=O)NCCNc2ccc(C(F)(F)F)cc2[N+](=O)[O-])cc1` the figure was 10.6%.
With `O=C(Cn1cnc([N+](=O)[O-])n1)Nc1ccc(F)cc1F`, the displacement is 16.7%.
Then `COC(=O)c1ccc(/C=N/NC(=O)c2cc(-c3ccc4ccccc4c3)n[nH]2)cc1`, with -1.3%.
With `COc1ccccc1/C=C1/SC(=S)N(CCC(=O)Nc2ccccc2)C1=O` the figure was 9.9%; with `COc1ccc(N2C(=O)C3C4C=CC(C5CC45)C3C2=O)c([N+](=O)[O-])c1` (configuration not stated), 12.7%; with `CCN1C(=O)/C(=C\c2cc(Cl)ccc2O)SC1=S`, -4.9%.
Then `Cc1cccc(C(=O)O/N=C(\N)c2ccncc2)c1`, with 8.5%; and `O=C(O)C1C2CCC(O2)C1C(=O)N1CCN(c2ccccc2F)CC1` (configuration not stated), with -9.9%; and `CCOc1ccc2nc(Nc3nc(C)c(C)c(=O)[nH]3)nc(C)c2c1`, with -15.1%.
`O=S(=O)(c1cc(Cl)ccc1Br)n1nnc2ccccc21`: the displacement was 0%.
With `CCOc1ccccc1C=Nc1ccccc1C(=O)Nc1ccccc1` the figure was -7.9%; with `Cc1ccc([N+](=O)[O-])cc1-c1ccc(/C=C(\C#N)C(=O)NCc2ccco2)o1`, 14.8%; with `COc1ccccc1CN1CCN(Cc2ccncc2)CC1`, -22.9%.
With `Cc1onc(-c2c(F)cccc2Cl)c1C(=O)NCc1cccnc1` the figure was -2.4%; with `CC1CC(C)(C)N(C(=O)CN2C(=O)c3ccccc3C2=O)c2ccccc21` (configuration not stated), 1.4%.
With `O=C(NC(NC(=S)N1CCOCC1)C(Cl)(Cl)Cl)c1cccc([N+](=O)[O-])c1` (configuration not stated) the figure was 10.3%; with `CC1=NN(c2ccccc2)C(=O)C1/C=C1\NC(=S)NC1=O` (configuration not stated), 0.7%.
Regarding `Cc1nc2ccccc2n1C(=O)c1cc(Cl)ccc1Cl`, the displacement amounted to 7.5%.
With `Cc1ccc(S(=O)(=O)/N=C/c2ccc(Cl)cc2Cl)cc1` the figure was -10.4%; with `COc1ccc(CN2CCN(CC3CC4C=CC3C4)CC2)c(OC)c1OC` (configuration not stated), 4.4%; with `O=C(NC(=S)Nc1ccc(N2CCOCC2)c(Cl)c1)c1ccc(Cl)cc1`, -7.8%.
Then `Cc1ccc(-n2nc3ccc(NC(=S)NC(=O)c4ccc(Cl)cc4)cc3n2)cc1`, with 6.4%; and `COc1ccc2nc(Nc3nc(C)cc(-c4ccccc4)n3)nc(C)c2c1`, with -14.2%; and `COC(=O)c1cc(NC(=O)/C=C/c2ccc(F)cc2)cc(C(=O)OC)c1`, with -11.7%.
With `CC(C)N1C(=O)c2cccc3c(N4CCCCC4)ccc(c23)C1=O` the figure was 9.8%; with `CCNC(=O)N1c2ccc(OC)cc2C(C)=CC1(C)C`, 14.5%.
`COc1ccc(Br)cc1C(=O)NCCNc1ccc(Cl)cc1[N+](=O)[O-]`: the displacement is 11%.
With `O=C(CSc1cccc2cccnc12)OCC(=O)c1ccccc1` the figure was 1.8%.
Turning to `Cc1cccc(OCC(=O)Nc2ccccc2-c2ccccc2)c1`, the displacement was -25.9%.
With `COc1ccc2oc(=O)c(C(=O)N3CCN(C)CC3)cc2c1` the figure was -8.4%; with `CCc1nnc(NS(=O)(=O)c2ccc(NC(=O)c3cccc4ccccc34)cc2)s1`, 19%; with `Cc1nc(SCC(=O)Nc2nnc(-c3ccc([N+](=O)[O-])cc3)s2)n[nH]1`, -9.5%.
Then `COc1ccccc1C/C(N)=N/OC(=O)/C=C/c1ccccc1`, with 0.9%; and `C=CCNC(=O)CN(c1ccc(OC)cc1OC)S(C)(=O)=O`, with -10.1%.
For the molecule `Cc1ccc(OCC(=O)NCc2ccccc2Cl)c(Br)c1`, the displacement is -0.3%.
Then `COc1ccc(N(Cc2ccc(C(=O)NCc3ccccc3)cc2)S(=O)(=O)c2ccccc2)cc1`, with -11%; and `CCOc1ccc(NC(=O)CC2S/C(=N\N=C(/C)c3ccc(Cl)cc3)NC2=O)cc1` (configuration not stated), with 8.6%; and `CCOc1ccc(C(NC(C)=O)c2ccc(OC)cc2)cc1` (configuration not stated), with -10%.
Then `COc1cc(C=C2C(=O)OC(C)(C)OC2=O)cc(Cl)c1O`, with -6.6%.
Then `CCOC(=O)c1ccc(NC(=O)C(=O)NCc2ccccn2)cc1`, with -20.8%; and `CC1(C)Cc2ccccc2/C(=C(\C#N)C(=O)Nc2ccccc2)N1`, with -5.6%; and `Cc1ccc(-c2nc3cc(Cl)cc(Cl)c3o2)cc1NC(=O)COc1ccccc1`, with 41%.
On to `Cn1cnnc1SCC(=O)N1CCCc2ccccc21`, for which the displacement was 15.4%.
With `O=C(Nc1ccccc1)Nc1nnc(Cc2ccc(Cl)c(Cl)c2)s1` the figure was 3.4%.
Turning to `O=C1c2ccccc2-c2onc3c(N4CCN(c5ccccc5)CC4)ccc1c23`, the displacement is -8.2%.
With `Cc1oc2cc(Br)c(O)cc2c1C(=O)OC(C)C` the figure was 7.1%; with `COc1ccc(S(=O)(=O)N2CCN(S(C)(=O)=O)CC2)cc1`, 7.4%.
Then `CCOc1ccc(Cl)cc1/C=C1\C(=N)N2N=C(CC)SC2=NC1=O`, with 2%.
Then `CC(=O)c1c(C)oc2ccc(NS(=O)(=O)c3cccc([N+](=O)[O-])c3)cc12`, with 7.1%; and `CCN(Cc1ccccc1)C(=O)c1cc(C(=O)OC)cc([N+](=O)[O-])c1`, with 6.7%; and `CNC(=S)Nc1ccc(C23CC4CC(CC(C4)C2)C3)cc1`, with -20.9%.
For `CCC1=NN2C(=N)/C(=C/c3ccc(OC(C)=O)cc3)C(=O)N=C2S1`, the displacement was -1.9%.
